Measured values as given in the supplement of paper PMC8047034.
Counter-ions that a name gives are not always drawn. This is one part of the list. Most values come without repeats; read them as rough.

What was measured:
OVCAR4 = experiment: log2 surviving fraction (library drug vs vehicle, or drug + carboplatin vs carboplatin alone; relative to plate median); ovarian cancer lines: OVCAR4 is platinum-sensitive and Ov4Carbo platinum-resistant; higher = more cell survival; conditions: library drug concentration 10 µM, 7 days
Ov4Carbo = experiment: as above; conditions: library drug concentration 10 µM, 7 days

| Compound | log2 surviving fraction (OVCAR4; carboplatin co-treatment 0 µM) | log2 surviving fraction (OVCAR4; carboplatin co-treatment 5 µM) | log2 surviving fraction (Ov4Carbo; carboplatin co-treatment 0 µM) | log2 surviving fraction (Ov4Carbo; carboplatin co-treatment 5 µM) |
| --- | --- | --- | --- | --- |
| CS(=O)(=O)c1ccc([C@@H](O)[C@@H](CO)NC(=O)C(Cl)Cl)cc1 [Thiamphenicol (Thiophenicol)] | -0.728 | -0.111 | 0.562 | 0.62 |
| COC(=O)[C@H](Cc1ccccc1)NC(=O)[C@@H](N)CC(=O)O [Aspartame] | 1.61 | 1.33 | 0.308 | 0.846 |
| O=P(O)(O)C(O)(Cc1cccnc1)P(=O)(O)O [Risedronate sodium] | -3.99 | 1.43 | 1.24 | 0.592 |
| CC(=O)OC1CN2CCC1CC2 (configuration not stated) [Aceclidine HCl] | 1.19 | 0.278 | 1.25 | 1.16 |
| O=C(N/N=C/c1ccc([N+](=O)[O-])o1)c1ccc(O)cc1 [Nifuroxazide] | -0.157 | -0.704 | -1.23 | -1.87 |
| O=c1cc[nH]c(=S)[nH]1 [2-Thiouracil] | 1.15 | 0.201 | 0.419 | 0.936 |
| CCCCCCCCCCC[C@@H](C[C@@H]1OC(=O)[C@H]1CCCCCC)OC(=O)[C@H](CC(C)C)NC=O [Orlistat (Alli, Xenical)] | -0.335 | -0.636 | -1.04 | -0.572 |
| OCCN1C[C@H](O)[C@@H](O)[C@H](O)[C@H]1CO [Miglitol (Glyset)] | -0.00949 | 0.272 | -0.091 | 0.386 |
| Cc1ccc(N(CC2=NCCN2)c2cccc(O)c2)cc1 [Phentolamine mesilate] | 0.891 | 1.97 | -1.5 | 1.26 |
| COc1cc(C(=O)NC2CCCNC2)cc(OC)c1OC (configuration not stated) [Troxipide] | -0.0274 | 0.76 | 0.498 | 0.863 |
| CC1=NN(c2ccc(C)c(C)c2)C(=O)/C1=N\Nc1cccc(-c2cccc(C(=O)O)c2)c1O | -5.11 | -3.47 | -4.46 | -3.32 |
| c1ccc([C@H]2CN3CCSC3=N2)cc1 [Levamisole Hydrochloride (Ergamisol)] | -2.37 | -1 | 0.532 | -1.02 |
| Cc1[nH]c(=O)c(C#N)cc1-c1ccncc1 [Milrinone (Primacor)] | 0.33 | 0.346 | -0.294 | -0.262 |
| COc1cc([C@@H]2c3cc4c(cc3[C@@H](O[C@@H]3O[C@@H]5CO[C@@H](c6cccs6)O[C@H]5[C@H](O)[C@H]3O)[C@H]3COC(=O)[C@H]23)OCO4)cc(OC)c1O [Teniposide (Vumon)] | -6.68 | -6.96 | -7.48 | -6.47 |
| C[C@@H]1O[C@@H](O[C@H]2C[C@@H](O)[C@]3(CO)[C@H]4[C@H](O)C[C@]5(C)[C@@H](C6=CC(=O)OC6)CC[C@]5(O)[C@@H]4CC[C@]3(O)C2)[C@H](O)[C@H](O)[C@H]1O [Ouabain] | -8.49 | -6.88 | -6.8 | -6.3 |
| COC(=O)C1=CCCN(C)C1 [Arecoline] | -0.134 | -0.0814 | -0.126 | 0.146 |
| NS(=O)(=O)c1cc(C(=O)O)c(NCc2ccco2)cc1Cl [Furosemide (Lasix)] | 1.24 | 0.341 | 0.945 | 0.494 |
| CCC[C@H](N[C@@H](C)C(=O)N1[C@H](C(=O)O)C[C@@H]2CCCC[C@@H]21)C(=O)OCC [Perindopril Erbumine (Aceon)] | 0.143 | -0.163 | 0.915 | 0.0487 |
